Experimental data taken from PubChem BioAssay AID1851 (National Center for Advancing Translational Sciences (NCATS), 2009).
This is a selection; strong and weak results do not stand in their true shares. Results filed as inconclusive are left out. The source made the active and inactive calls. Calls follow the shape of the dose curve; as a rule, active = well fitted curve in the direction sought with a large enough effect; inconclusive = small, poorly fitted or top-dose-only effect, or effect the other way; inactive = no such curve, though single readings can be large or run the other way.
% is scaled to controls: 0 for no effect and ±100 for the full control effect.

Each molecule was assayed against Cytochrome P450 2C19 (Homo sapiens) (UniProt P33261) (assay: Cytochrome panel assay with activity outcomes). Details: recombinant CYP, pro-luciferin dealkylation, luminescence, p450-cyp2c19; at 25.6 µM (top of the series).
UniProt P33261, sequence (P33261 whole entry, looked up): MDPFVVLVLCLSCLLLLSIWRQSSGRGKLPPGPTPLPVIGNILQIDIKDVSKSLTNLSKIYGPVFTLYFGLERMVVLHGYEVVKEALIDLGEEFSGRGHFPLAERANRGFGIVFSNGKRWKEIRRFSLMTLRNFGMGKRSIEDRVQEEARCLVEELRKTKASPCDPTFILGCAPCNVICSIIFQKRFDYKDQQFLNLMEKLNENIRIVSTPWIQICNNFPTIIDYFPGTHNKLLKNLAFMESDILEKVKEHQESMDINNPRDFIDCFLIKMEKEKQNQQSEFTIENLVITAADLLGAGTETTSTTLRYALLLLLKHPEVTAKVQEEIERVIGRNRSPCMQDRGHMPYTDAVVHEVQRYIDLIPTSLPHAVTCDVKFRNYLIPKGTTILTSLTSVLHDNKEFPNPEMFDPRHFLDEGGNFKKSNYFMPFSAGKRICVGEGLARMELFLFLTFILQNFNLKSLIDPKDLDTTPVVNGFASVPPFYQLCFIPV
Method: The P450 gene superfamily is involved in the metabolism and clearance of xenobiotics. This assay used various human CYP P450 isozymes to measure the dealkylation of various pro-luciferin substrates to luciferin. The luciferin is then measured by luminescence after the addition of a luciferase detection reagent. Pro-luciferin substrate concentration in the assay was equal to its KM for its CYP P450 isozyme. Inhibitors and some substrates limit the production of luciferin, and decrease measured luminescence.
NCGC Assay Protocol Summary:
1, Reagent, 2 uL, Isozyme and Pro-Luciferin
2, Library compounds, 23 nl, 40 uM to 0.24 nM dilution series
3, Controls, 23 nl, Isozyme specific inhibitor
4, Reagent, 2 uL, NADPH regeneration solution
5, Incubation time, 60 min, Isozyme specific temperature
6, Reagent, 4ul, Detection reagent
7, Incubation time, 20 min, Isozyme specific temperature
8, Detection, 1 sec, ViewLux luminescent read
The luciferase-based P450-GloTM Screening Systems were obtained from Promega (Madison, WI) for CYP 1A2 (V9770), CYP 2C9 (V9790), CYP2 C19 (V9880), CYP 2D6 (V9890), and CYP 3A4 Luciferin-PPXE (V9910) and were adapted for 1,536-well microplates and an automated protocol. […]
`CC(=O)[C@@H]1CC[C@H]2[C@H]3CC[C@H]4C[C@@H](O)CC[C@]4(C)[C@@H]3C(=O)C[C@@]12C` was tested, and the activity, negative = inhibition was inactive: -30.3%.
